The campaign covered roughly 420,000 compounds. About 50,000 (12%) were called active. Inconclusive results, whose numbers are uncertain, are shown with a selection of clear calls. Calls come from the whole dose curve; as a rule, active = well fitted inhibition curve with a large enough effect; inconclusive = small, poorly fitted or top-dose-only effect; inactive = flat fitted curve, though single readings scatter. Potencies of inconclusive entries are left out as doubtful fits.
Experiment: qHTS for Inhibitors of human tyrosyl-DNA phosphodiesterase 1 (TDP1): qHTS in cells in presence of CPT; note: nearly all actives have a fitted effect of over 55% in size
Conditions: chicken DT40 Tdp1-/-;hTDP1 cells + 20 nM CPT, ATP luminescence, 48 h; activity change, negative = growth inhibition: at 46.2 µM (top of the series) unless noted
Procedure, shortened: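 Cell growth measured by CellTiter-Glo luminescence after a minimum 48 h, 37 C compound exposure with 20 nM CPT in Tdp1-knockout DT40 cells stably expressing hTDP1, seeded 400/well; qHTS titration format.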
% is set by controls: 0 for no effect and ±100 for the full control effect; potency is the fitted concentration of half-maximal effect; tags give direction and shape of the fitted curve.

| SMILES | Potency | activity change, negative = growth inhibition |
| --- | --- | --- |
| O=C(c1csc2c1CCCC2)N1CCN(c2ccccc2)CC1 | inconclusive [inhibitor, partial curve, poor fit] |  |
| COc1ccc(NC(=O)CCS(=O)(=O)c2ccc(Cl)cc2)cc1 | inactive |  |
| O=C(c1cc(-c2ccc(Cl)cc2)on1)N1CCCCCC1 | inconclusive [inhibitor, single point] |  |
| Cc1ccc2c(c1)c(=O)c1ccccc1n2CCCC(=O)Nc1ccc(Cl)cc1C | inconclusive [inhibitor, partial curve] |  |
| O=C(NC1CCCCC1)C(c1ccnc2ccccc12)N1CCOCC1 (stereo unspecified) | inactive |  |
| COCC1CCCCN1C(=O)c1ccc(OC2CCN(CCc3ccccc3)CC2)cc1 (stereo unspecified) | inconclusive [inhibitor, single point] |  |
| O=C(Cc1cn(Cc2cccc(Cl)c2)c2ccccc12)N1CCCC1 | inconclusive [inhibitor, single point] |  |
| Cn1c(=O)c2c(nc(CN3CCc4ccccc4C3)n2Cc2ccc(F)cc2)n(C)c1=O | active: 20.6 µM |  |
| COc1cc([N+](=O)[O-])ccc1NC(=O)COC(=O)CCOc1ccc(C)cc1 | active: 6.51 µM |  |
| Cc1cccc(N(C(=O)c2ccco2)C(C(=O)NC2CCCC2)c2ccco2)c1C (stereo unspecified) | inactive |  |
| O=C(OCc1ccccc1C(F)(F)F)c1ccc(Br)c(S(=O)(=O)N2CCOCC2)c1 | inconclusive [inhibitor, single point] |  |
| Cc1nn(CC(O)COc2ccc3c(c2)CCC3)c(C)c1Br (stereo unspecified) | inconclusive [inhibitor, partial curve, poor fit] |  |
| Cc1ccc(NC(=O)Cn2c(=O)n(CCCCC(=O)NCc3ccco3)c(=O)c3ccccc32)cc1 | inconclusive [inhibitor, single point] |  |
| CN(C)CC(C)(C)CNS(=O)(=O)c1ccc(OC(F)(F)F)cc1 | inactive |  |
| O=C(COc1ccc(Cl)cc1)Nc1cccc(-c2ccc(N3CCOCC3)nn2)c1 | inconclusive [inhibitor, single point] |  |
| CCc1cc2c(=O)c(-c3nc4ccccc4n3C)coc2c(CN2CCCCC2)c1O | inconclusive [inhibitor, single point] |  |
| O=[N+]([O-])c1cc2c(cc1CN1CCN(c3ccccc3F)CC1)OCO2 | inactive |  |
| Cc1ccnc(NC(=O)c2cc3ccccc3o2)c1 | inactive |  |
| Cn1c(N)c(C(=O)CSc2nnc(Cc3cccs3)n2C2CC2)c(=O)n(C)c1=O | inactive |  |
| Cc1nc2ccc(NC(=O)c3cccc(S(=O)(=O)N4CC(C)OC(C)C4)c3)cc2s1 (stereo unspecified) | active: 7.31 µM |  |
| CCOC(=O)c1nn(-c2ccc(OCC)cc2)c2nc(-c3ccco3)c(C#N)c(=O)n12 | inconclusive [inhibitor, partial curve, poor fit] |  |
| CC(C)CC(=O)N1CCN(Cc2ccccc2Cl)CC1 | inactive |  |
| CC(=O)c1ccc(NC(=O)CN2C(=O)CCc3cc(S(=O)(=O)N4CCC(C)CC4)ccc32)cc1 | inactive |  |

| SMILES | Potency | activity change, negative = growth inhibition |
| --- | --- | --- |
| CN(c1ccccc1)S(=O)(=O)c1cc(C(=O)N2CCN(c3ccccn3)CC2)ccc1Cl | active: 9.2 µM |  |
| Cc1nn(-c2ccccc2)c(C)c1NC(=O)COc1ccc2ccccc2c1 | active: 16.4 µM |  |
| CCSc1nnc(NC(=O)c2cc(-c3ccccc3O)n[nH]2)s1 | inconclusive [inhibitor, partial curve] |  |
| COC(=O)C1=NNC(C(=O)c2ccco2)C1c1ccc(OC)cc1 (stereo unspecified) | inactive |  |
| Cc1cc(C)cc(NS(=O)(=O)c2ccc3[nH]cc(C(=O)NCc4ccco4)c(=O)c3c2)c1 | active: 11.6 µM |  |
| COc1ccc(C2CC(c3cccs3)=NN2C(=O)COC(=O)c2cc3ccccc3cc2O)cc1OC (stereo unspecified) | inactive |  |
| O=C(Cn1nc(Cc2cccnc2)c2ccccc2c1=O)Nc1ccccc1F |  | inconclusive: 14.5% [inhibitor] |
| O=C(Nc1ccc(Cl)c(C(F)(F)F)c1)c1cc2nc(-c3ccc4c(c3)OCO4)cc(C(F)(F)F)n2n1 | inactive |  |
| CCCn1ccc2c(OCC(=O)Nc3ccc(C(F)(F)F)cc3)cccc2c1=O | inactive |  |
| CC(C)C1C(=O)N(Cc2cn(Cc3ccco3)nn2)CCS(=O)(=O)N1Cc1ccc(-c2ccc(F)cc2)cc1 (stereo unspecified) | inconclusive [inhibitor, single point] |  |
| CN(CCC1CCOCC1)C(=O)c1cc(COc2c(F)cccc2F)on1 | inconclusive [inhibitor, single point] |  |
| O=C(NCC1CCCN1S(=O)(=O)c1cccs1)c1cccc(F)c1 (stereo unspecified) | active: 16.4 µM |  |
| Cc1cc(C)n(CC(C)NC(=O)c2cc(COc3ccc(F)c(F)c3)on2)n1 (stereo unspecified) | inconclusive [inhibitor, single point] |  |
| O=C(Nc1ccccc1F)c1oc2ccccc2c1NC(=O)C12CC3CC(CC(C3)C1)C2 | inactive |  |
| Cc1ccc(-c2cc(C(=O)Nc3cc(C)on3)c3ccccc3n2)c(C)c1 | inconclusive [inhibitor, single point] |  |
| CCOc1ccccc1C(=O)Nc1cc2c(cc1N1CCCCC1)n(C)c(=O)n2C | active: 14.6 µM |  |
| Cc1nc2ccc(C(=O)N(C)CC3CCCN(CCc4ccc(Cl)cc4)C3)cc2[nH]1 (stereo unspecified) | inactive |  |
| CCC(C)n1c(SCc2ccc([N+](=O)[O-])cc2)nc2ccsc2c1=O (stereo unspecified) | active: 23.1 µM |  |
| COc1ccc(NC(=O)CSc2n[nH]c(-c3ccccc3)n2)cc1Cl | inconclusive [inhibitor, single point] |  |
| Cn1c(=O)c(C(=O)COC(=O)c2cc(C3CC3)nc3ccccc23)c(N)n(Cc2ccccc2)c1=O | active: 20.6 µM |  |
| CC(CCc1ccc(O)cc1)N1CCOc2c(O)cc(-c3nc4ccccc4s3)cc2C1 (stereo unspecified) | active: 18.4 µM |  |
| C[C@H](CO)N1C[C@H](C)[C@@H](CN(C)Cc2ccccc2)Oc2c(NS(=O)(=O)c3ccc(F)cc3)cccc2C1=O | inactive |  |
| CCOC(=O)C1=C(C)N=C2SC(C(=O)OC)=CC(=O)N2C1c1ccc(OC)cc1 (stereo unspecified) | inconclusive [inhibitor, single point] |  |
